In PubChem BioAssay AID686979 (National Center for Advancing Translational Sciences (NCATS), 2013):
“And” between values parts separate entries of the source, which are not always exact repeats. Identical values can stand only once. About 50,000 (12%) of roughly 420,000 compounds were called active. Inconclusive results, whose numbers are uncertain, are shown with a selection of clear calls. Calls follow the shape of the dose curve; as a rule, active = well fitted inhibition curve with a large enough effect; inconclusive = small, poorly fitted or top-dose-only effect; inactive = flat fitted curve, though single readings scatter. Potencies of inconclusive entries are left out as doubtful fits.
Potency is read from the fitted curve at half-maximal effect; tags tell the direction and shape of the fitted curve.

Assay: qHTS for Inhibitors of human tyrosyl-DNA phosphodiesterase 1 (TDP1): qHTS in cells in presence of CPT; also: nearly all actives have a fitted effect of over 55% in size
Conditions: chicken DT40 Tdp1-/-;hTDP1 cells + 20 nM CPT, ATP luminescence, 48 h; series mostly up to 46.2 µM
Outline: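 Chicken DT40 Tdp1-/- cells stably complemented with human TDP1 were seeded at 400 cells/well in medium containing 20 nM camptothecin, exposed to pin-transferred compounds, and grown at 37 °C for at least 48 hr. Viability was read as ATP luminescence.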
With `c1cc2c(cc1C1OC[C@@H]3C(c4ccc5c(c4)OCO5)OCC13)OCO2` (stereo not given in full) the Potency was “inactive”. In the case of `O=c1[nH]c(=S)n(-c2ccc(Cl)cc2)c(O)c1/C=N/N1CCOCC1`, the Potency is reported as “inactive”. For `CCCCCCC[n+]1ccc(-c2cc[n+](CCCCCCC)cc2)cc1`, the Potency was active: 531 nM and active: 794 nM and active: 651 nM. For `O=C(CSc1nc2ccccc2[nH]1)NC1CCCc2ccccc21` (stereo not given), the Potency was inconclusive [inhibitor, partial curve]. With `CC1(CCl)CN1S(=O)(=O)c1ccccc1` (stereo not given) the Potency was active: 18.4 µM. For `COC(=O)C1=C(c2ccc(OC(F)(F)F)cc2)C[C@@H]2CC[C@H]1N2C(=O)N1CCCCC1`, the Potency was active: 2.59 µM. With `CN1C(=O)NC(=O)/C(=C\C=C\c2ccccc2[N+](=O)[O-])C1=O` the Potency was inconclusive [inhibitor, single point]. For `O=C1NC[C@H](CCCCN2C[C@@H](Cc3ccccc3)N(CC3CCCCC3)C(=O)C2=O)N(CCC2CCCCC2)C1=O`, the Potency was active: 18.4 µM. For `COc1ccc(OC)c2c1CCC1NCCOC21` (stereo not given), the Potency was “inactive”. In the case of `CCC(=O)OC1CCC2C3CCC4=CC(=O)CC[C@@]4(C)C3CC[C@]12C` (stereo not given in full), the Potency is reported as inconclusive [inhibitor, single point]. For `Cc1cc(OC(=O)N(C)C)nc(SCc2c(Cl)cccc2Cl)n1`, the Potency was “inactive”. In the case of `CCCCC[C@H]1CCCCC[C@H](O)C[C@H](O)[C@@H](O)/C=C/C(=O)O1`, the Potency is reported as active: 23.1 µM. For `Cc1ccc(Cl)cc1N1CCN(C(=O)C2CCN(Cc3nc(-c4ccc(Cl)cc4)oc3C)CC2)CC1`, the Potency was inconclusive [inhibitor, single point]. For `O=C1NC(=O)C(=Cc2ccccc2Oc2ccc(F)cc2)C(=O)N1`, the Potency was “inactive”. In the case of `CCOc1cc2c(cc1OCC)-n1cccc1C(c1cccc(F)c1F)NC2` (stereo not given), the Potency is reported as inconclusive [inhibitor, single point]. For `CC(C)n1c(/C=C/[C@H](O)C[C@H](O)CC(=O)O)c(-c2ccc(F)cc2)c2ccccc21`, the Potency was active: 18.4 µM. For `Cn1c(=O)oc2cc(S(=O)(=O)N3CCC(C(=O)Nc4ccc(OC(F)(F)F)cc4)CC3)ccc21`, the Potency was inconclusive [inhibitor, partial curve]. With `O=C(Cn1c(NCCCl)nc2ccccc21)c1ccc(Br)cc1` the Potency was inconclusive [inhibitor, single point]. In the case of `COc1ccc(OC)c(CN2C(=O)c3ccccc3C2c2nnnn2-c2c(C)cccc2C)c1` (stereo not given), the Potency is reported as inconclusive [inhibitor, single point]. In the case of `CCc1nc2c(OCc3ccc(C(F)(F)F)cc3)cccn2c1N(C)C(=O)C(C)C`, the Potency is reported as inconclusive [inhibitor, single point]. In the case of `COc1ccc(CN2C(=O)CC(=O)NC2=S)cc1`, the Potency is reported as “inactive”. In the case of `CCC1CCC(C)N(N=O)C1` (stereo not given), the Potency is reported as “inactive”. With `O=[N+]([O-])c1ccc(-[n+]2c(-c3ccccc3)cc(-c3ccccc3)cc2-c2ccccc2)cc1` the Potency was inconclusive [inhibitor, single point]. In the case of `O=c1c2ccccc2nc(/C=C/c2ccccc2)n1-c1ccccc1F`, the Potency is reported as inconclusive [inhibitor, single point]. For `COc1ccc(CN2Cc3cnnn3-c3ccccc3C2C)cc1` (stereo not given), the Potency was inconclusive [inhibitor, single point]. With `CCOC(=O)c1ccc(S(=O)(=O)n2c(=O)oc3ccccc32)cc1` the Potency was inconclusive [inhibitor, partial curve]. In the case of `C[C@]1(O)CCC2C3CC[C@H]4C[C@@H](OC(=O)[C@@H](N)CCCCN)CC[C@]4(C)C3CC[C@@]21C` (stereo not given in full), the Potency is reported as inconclusive [inhibitor, single point]. For `COc1ccc(C(CNC(=O)Cc2ccc(Cl)c(Cl)c2)N2CCCCC2)cc1` (stereo not given), the Potency was inconclusive [inhibitor, single point]. With `CN1CCN(c2cccc3c2C(=O)c2ccccc2C3=O)CC1` the Potency was inconclusive [inhibitor, single point]. In the case of `Cc1[nH]n(-c2ccccc2)c(=O)c1C(c1ccc([N+](=O)[O-])cc1)c1c(C)[nH]n(-c2ccccc2)c1=O`, the Potency is reported as active: 16.4 µM. With `Cc1cccc(N2CCc3c2nc2ccccc2c3N)c1` the Potency was active: 14.6 µM. For `Cc1cccc(OP(=O)(Nc2cccnc2)Oc2cccc(C)c2)c1`, the Potency was inconclusive [inhibitor, partial curve]. In the case of `Cc1nnc(NC(=O)c2cccn(Cc3cccc(Cl)c3)c2=O)s1`, the Potency is reported as inconclusive [inhibitor, single point]. In the case of `Cn1c(O)c(C=NCCCCCCCCCCC(=O)O)c(=O)n(C)c1=O`, the Potency is reported as “inactive”. For `COC(=O)C1=C(c2ccc(F)cc2OCc2ccccc2)C[C@@H]2CC[C@H]1N2C(=O)NCCO`, the Potency was “inactive”. For `O=C(c1cc2cc(Cl)ccc2[nH]1)N1CCC2(CC1)OCCO2`, the Potency was active: 18.4 µM. With `COc1ccccc1OCC(=O)Nc1ccc(Cl)cc1C(=O)c1ccccc1` the Potency was inconclusive [inhibitor, single point]. In the case of `CCOc1cc(C=C2C(=O)NC(=O)NC2=O)ccc1OS(=O)(=O)c1ccccc1`, the Potency is reported as inconclusive [inhibitor, single point]. With `CCOc1ccc(NC(=O)c2ccc(F)c(S(=O)(=O)NCc3ccc4c(c3)OCO4)c2)cc1` the Potency was inconclusive [inhibitor, single point]. With `CCCCn1c(NC(=O)c2ccco2)c(C(=O)OCC)c2nc3ccccc3nc21` the Potency was active: 9.2 µM. In the case of `O=C(CCc1ccccc1)N1Cc2cc(N3CCCCC3)ccc2-n2nncc2C1`, the Potency is reported as inconclusive [inhibitor, single point]. With `CCN1CCN(c2ccc(NC(=O)C(C)C)cc2Cl)CC1` the Potency was “inactive”. In the case of `CC(C)=CCOc1c2occc2cc2ccc(=O)oc12`, the Potency is reported as “inactive”. In the case of `CN(C)c1ccc([N+](=O)[O-])c([N+](=O)[O-])c1`, the Potency is reported as inconclusive [inhibitor, single point]. For `COOCC1(C(=O)OC)C[C@H](c2ccc(OC)cc2)N(Cc2ccccc2OC)[C@@H]1c1ccccc1C` (stereo not given in full), the Potency was inconclusive [inhibitor, single point].
